# Experimental data reported in article PMC4336329 (PLoS ONE, 2015).
# The campaign covered roughly 310,000 compounds. About 14,000 (4.5%) showed an effect of 50% or more. The effect is printed as a negative number. The list shows a part of the results.
# Target: human ether-à-go-go-related gene (hERG) potassium channel (human, UniProt Q12809)
# Test: primary screen, population patch clamp on CHO cells stably expressing hERG
# 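Also: peak tail current of the secondary pulse compared with the same well before compound.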
# Sequence of human ether-à-go-go-related gene (hERG) potassium channel (Q12809 whole entry, looked up): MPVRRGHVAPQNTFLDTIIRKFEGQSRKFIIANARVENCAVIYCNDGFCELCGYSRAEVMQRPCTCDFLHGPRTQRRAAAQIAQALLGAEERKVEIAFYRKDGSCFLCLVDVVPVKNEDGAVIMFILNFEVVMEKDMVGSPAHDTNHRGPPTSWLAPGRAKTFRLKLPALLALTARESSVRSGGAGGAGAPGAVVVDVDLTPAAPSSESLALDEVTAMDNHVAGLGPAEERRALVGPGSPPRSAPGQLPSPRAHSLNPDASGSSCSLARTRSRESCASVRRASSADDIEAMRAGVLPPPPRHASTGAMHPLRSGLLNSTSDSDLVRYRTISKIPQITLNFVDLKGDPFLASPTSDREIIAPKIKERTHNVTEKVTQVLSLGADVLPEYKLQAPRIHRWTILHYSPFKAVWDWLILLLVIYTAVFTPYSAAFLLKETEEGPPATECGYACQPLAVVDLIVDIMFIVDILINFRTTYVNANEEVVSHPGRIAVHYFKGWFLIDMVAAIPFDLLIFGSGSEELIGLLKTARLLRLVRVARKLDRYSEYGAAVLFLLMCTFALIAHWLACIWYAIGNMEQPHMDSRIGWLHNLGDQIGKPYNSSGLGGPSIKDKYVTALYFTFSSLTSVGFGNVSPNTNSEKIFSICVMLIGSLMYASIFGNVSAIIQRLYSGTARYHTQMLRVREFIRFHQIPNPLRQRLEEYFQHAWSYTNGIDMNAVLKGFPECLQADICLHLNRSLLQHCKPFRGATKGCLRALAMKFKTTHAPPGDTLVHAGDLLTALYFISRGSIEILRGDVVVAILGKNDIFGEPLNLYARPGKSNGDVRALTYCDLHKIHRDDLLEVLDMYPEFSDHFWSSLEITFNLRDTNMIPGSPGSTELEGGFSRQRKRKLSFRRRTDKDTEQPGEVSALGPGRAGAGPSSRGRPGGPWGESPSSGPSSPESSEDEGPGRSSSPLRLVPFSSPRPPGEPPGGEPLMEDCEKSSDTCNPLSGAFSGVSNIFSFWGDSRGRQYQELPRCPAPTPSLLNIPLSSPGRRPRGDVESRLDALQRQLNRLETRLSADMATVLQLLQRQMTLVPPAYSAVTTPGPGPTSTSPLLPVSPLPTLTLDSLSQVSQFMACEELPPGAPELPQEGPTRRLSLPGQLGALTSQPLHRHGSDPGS
row,SMILES,"hERG current change (%, negative = inhibition) at 10uM"
1,COc1ccc(S(=O)(=O)NNC(=O)C23CC4CC(CC(C4)C2)C3)cc1[N+](=O)[O-],-33.1%
2,C=CCn1c(SCC(=O)NCCCC(=O)OCC)nc2scc(-c3ccco3)c2c1=O,-46.2%
3,CCCOC(=O)Nc1c(C)cccc1C(C)C,-10.1%
4,COCCNC(=O)c1ccc(CSc2nc3ccccc3s2)cc1,-0.171%
5,COc1ccc(C2C(C(=O)NCCN3CCOCC3)c3ccccc3C(=O)N2C)cc1OC (centres unmarked),18%
6,O=C(NC(=S)N1CCN(c2c(Cl)cccc2[N+](=O)[O-])CC1)c1cccs1,-2.97%
7,Cc1ccc(Sc2c(CO)c(-c3ccccc3)nn2C)cc1,1.92%
8,COC(=O)COc1ccc(S(=O)(=O)NCc2ccncc2)cc1,-11.5%
9,OCCN(CCO)c1nc2ccccc2[nH]1,10.5%
10,Cc1ccc(-c2nn(Cc3ccccc3)cc2/C=C/C(=O)O)cc1C,25.8%
11,COc1cc(C(=O)NC(=S)N2CCCCCC2)cc(OC)c1OC,15.2%
12,Cc1cccc(NS(=O)(=O)c2cc3c(cc2C)NC(=O)CO3)c1,-37.1%
13,CCNC(=O)NC(=O)C(C)Sc1nc2ccccc2n1CC(C)C (centres unmarked),-12.9%
14,CCN(CC)Cc1c(O)ccc2c(=O)c(-c3ccc4c(c3)OCCO4)coc12,4.84%
15,O=C(OCC(=O)c1ccc(Cl)s1)c1ccc(CO)cc1,-2.65%
16,CC1(C)c2ssc(=S)c2-c2ccccc2N1C(=O)c1ccco1,9.15%
17,COc1cccc(/C=C2\Sc3ccc(C(=O)NCc4cccnc4)cc3N(C)C2=O)c1,-30.9%
18,O=C(Cc1ccc([N+](=O)[O-])cc1)N1CCCCCC1,-21.9%
19,O=C(CSc1nnc(-c2ccc(F)cc2)o1)c1ccc2c(c1)OCCO2,-8.06%
20,COc1cccc(N2CC(C(=O)Nc3nnc(SCC(=O)NC4CCCC4)s3)CC2=O)c1 (centres unmarked),14.7%
21,CCCNC(=O)COC(=O)CCC(=O)c1cccs1,1.23%
22,Cc1ccc(S(=O)(=O)NCC2CCCO2)cc1[N+](=O)[O-] (centres unmarked),18.3%
23,O=C(c1cccc(Br)c1)N1CCN(S(=O)(=O)N2CCCCCC2)CC1,-23.1%

row,SMILES,"hERG current change (%, negative = inhibition) at 10uM"
1,O=C(CN1CCN(S(=O)(=O)c2ccc(Br)cc2)CC1)Nc1ccc(F)cc1,-67.8%
2,CCOC(=O)c1c(-c2ccccc2)csc1NC(=S)NC,-3.27%
3,COc1ccc(CCC(C)Nc2ccc(F)c(F)c2)cc1 (centres unmarked),5.47%
4,CN1CCN(C(=S)NC(=O)c2ccc(Br)cc2)CC1,2.05%
5,COc1ccc2oc(=O)c(C(=O)NCCc3ccc(OC)c(OC)c3)cc2c1,2.39%
6,CCCCn1c(N)c(N(CCOC)C(=O)c2cc(CC)c(C)s2)c(=O)[nH]c1=O,4.56%
7,COc1ccc(-c2coc3cc4oc(=O)c5ccccc5c4cc23)cc1F,3.58%
8,CN(C)c1nc(N(C)C)n(C(=O)c2cccs2)n1,6.55%
9,CCOC(=O)Cc1c(C)nc2c(-c3ccccc3)cnn2c1C,-13.8%
10,O=C(Cn1cncn1)c1ccc(F)cc1F,24.7%
11,O=S(=O)(c1ccc(N2CCN(S(=O)(=O)c3ccc4c(c3)OCCO4)CC2)nc1)N1CCCC1,-3.29%
12,Cc1cccc(NC(=S)N(CCN(C)C)Cc2cc3cc(C)cc(C)c3[nH]c2=O)c1,-49.7%
13,CC(=O)c1ccc(N2CCN(S(=O)(=O)c3ccc4c(c3)CC(C)N4C(C)=O)CC2)cc1 (centres unmarked),-22.3%
14,CC(C)=CCC/C(C)=C/CN(CC(C)O)CC(C)O (centres unmarked),5.47%
15,Cc1oncc1-c1csc(-c2ccccc2)n1,11.1%
16,CC(=O)c1ccc(OC(=O)c2cccs2)cc1,15.9%
17,Fc1ccc(-c2nnc(-c3ccc(F)cc3)o2)cc1,11.5%
18,NC(=O)c1nc(C(=O)N2CCCCC2)c2ccccc2n1,17.1%
19,COC(=O)c1ccccc1NS(=O)(=O)c1ccc(Cl)nc1,9.53%
20,Cc1cc(=O)oc2c(CN3CCN(CCO)CC3)c(O)ccc12,8.71%
21,C/C(=C\C(=O)c1ccccc1)Nc1cccc(O)c1,10.8%
22,Cc1cccn2c(=O)c(/C=C(\C#N)S(=O)(=O)c3ccccc3)c(Oc3ccc(Cl)cc3)nc12,8.86%
23,Cc1ccc(S(=O)(=O)N2CCCCC2)cc1NC(=O)CNC(C)c1ccc(Cl)c(Cl)c1 (centres unmarked),-4.28%

row,SMILES,"hERG current change (%, negative = inhibition) at 10uM"
1,CC(C)(C)NC(=O)NC(=O)COC(=O)C1=COCCO1,-4.82%
2,COc1ccc(CNC(=O)C2CCCN(S(=O)(=O)c3cc(C)ccc3OC)C2)cc1 (centres unmarked),7.26%
3,CC(O)[C@H]1CNC(=S)N1CCc1cccc(F)c1 (some centres unmarked),12.9%
4,Cc1nnc(SC(C)C(=O)Nc2c(C)n(C)n(-c3ccccc3)c2=O)n1N (centres unmarked),0.329%
5,COc1cc2cc(C(N)=O)c(N)nc2cc1OC,-11%
6,Cc1sc2nc(SC(C)C)nc(N)c2c1C,-2.58%
7,Cc1ccc(C(=O)N2CCOCC2)cc1S(=O)(=O)N1CCCCC1,11.1%
8,CC(=O)c1ccc(N2CCN(S(=O)(=O)c3cc(-c4cc(C)no4)ccc3C(C)C)CC2)cc1,5.74%
9,CCOC(=O)C1CCCN(C(=O)c2cn(C)c3ccc(S(=O)(=O)N4CCCC4)cc3c2=O)C1 (centres unmarked),8.84%
10,CC[n+]1c(C)n(-c2ccccc2)c2ccc(NC(C)=O)cc21.[I-],11%
11,CC1CC(C)CN(S(=O)(=O)c2ccc(C(=O)NCCCn3ccnc3)cc2)C1 (centres unmarked),-17.6%
12,COc1ccc(-c2nc(CS(=O)CC(=O)NC3CCCCC3)c(C)o2)cc1 (centres unmarked),-6.79%
13,Fc1ccc(NC(=S)NN2CCOCC2)cc1Cl,17.8%
14,Cc1ccccc1N1CCN(C2CCCN(C(=O)c3snnc3C)C2)CC1 (centres unmarked),5.72%
15,O=C(NC1CCCCCCC1)NC1CCCCC1,3.77%
16,O=C(CN1C(=O)c2ccccc2C1=O)Oc1ccc(Cl)cc1,17.8%
17,O=C(Nc1ccc([N+](=O)[O-])cc1)Nc1ccc(OC(F)F)c(Cl)c1,19.6%
18,O=C(CCNC(=O)c1ccccc1Cl)Nc1cc(S(=O)(=O)N2CCOCC2)ccc1N1CCCC1,-8.58%
19,COc1cc(/C=C2/C(=N)N3N=C(CC(=O)N4CCOCC4)SC3=NC2=O)ccc1OCc1ccccc1F,17.1%
20,Cc1ccc(S(=O)(=O)N2CCN(C(=O)CN3C(=O)c4ccc([N+](=O)[O-])cc4C3=O)CC2)c(C)c1,-7.44%
21,CCc1nnc(NS(=O)(=O)c2ccc(N=Cc3c(C)[nH]n(-c4ccc(Cl)cc4)c3=O)cc2)s1,17.7%
22,Cc1cccc(NC(=O)CSc2cccc3cccnc23)c1,-4.84%
23,COc1cc(CN(C)c2ncnc3sccc23)ccc1OC(F)F,-27.8%

row,SMILES,"hERG current change (%, negative = inhibition) at 10uM"
1,O=C(NCCCO)NC(=S)c1cccc2ccccc12,0.975%
2,CC(NC(=O)c1cccc2ccccc12)c1ccc2c(c1)CCCC2 (centres unmarked),3.57%
3,O=C(O)CCn1c(C2CCCCC2)nc2ccccc21,-16.3%
4,COc1ccc(S(=O)(=O)N2CCC(C(=O)N3CCOCC3)CC2)cc1OC,8.8%
5,Cc1nn(-c2ccccc2)c2c1C(c1ccc([N+](=O)[O-])cc1)C(C#N)=C(N)O2 (centres unmarked),15.4%
6,CCOC(=O)c1cc(C#N)c(SCC(=O)OC)[nH]c1=O,6.6%
7,O=C(c1ccc([N+](=O)[O-])o1)N1CCN(c2nc3c(Cl)cccc3s2)CC1,-10.3%
8,Cc1ccc(C2C3=C(NCCN=C3c3ccccc3)C(=O)N2c2ccccc2)cc1 (centres unmarked),-31.7%
9,CC(=O)c1cccc(NC(=S)NC(=O)CC(C)(C)C)c1,-14.6%
10,O=C(NCCC(=O)N1CCN(c2ccccc2O)CC1)c1ccc(Cl)cc1,-15.7%
11,CCCCC(=O)Nc1ccc(C(=O)NNC(=S)NC(=O)c2cccs2)cc1,3.94%
12,Cc1cc(C)nc(NC(=O)c2cccs2)c1,15.3%
13,Cn1c(N)c(C(=O)COc2ccc(C#N)cc2)c(=O)n(C)c1=O,-4.83%
14,Cc1ccc(NC(=O)C2CCN(S(=O)(=O)c3cccnc3)CC2)cc1C,-16.2%
15,CC(NS(=O)(=O)c1ccc(OCC(=O)NCc2ccccn2)cc1)c1ccccc1 (centres unmarked),8.71%
16,Cc1ccc(S(=O)(=O)Cc2ccc(C(=O)NCCc3ccccc3)o2)cc1,-27.7%
17,COc1ccc(C(=O)Nc2cc(OC)cc(OC)c2)cc1,-14.7%
18,COC(=O)c1ccc(Cn2nnc3ccccc32)cc1,0.685%
19,COC(=O)c1ccc(OC)c(CSc2nnc(COc3ccc(Cl)cc3)o2)c1,-23.7%
20,CC(=O)c1c(C)[nH]c(C(=O)COC(=O)CN(C)S(=O)(=O)c2ccc(Cl)cc2)c1C,-57.8%
